Source: paper PMC8857485, “Prostate secretory protein 94 inhibits sterol binding and export by the mammalian CAP protein CRISP2 in a calcium-sensitive manner” (The Journal of Biological Chemistry, 2022)
No constants are given. Whether binding was seen depends on the method and setting. For some assays here: In cells and extracts the contact can be indirect. Some results given as binding are weak or reduced against the parent protein; the word gives no strength. Where a sequence is shown, tags or fusion partners need not be part of it. Blank lines part the entries; values can stand above or below the binder they belong to.

Assays:
[1] = biological target: T1, HA-tagged CRISP2 expressed in yeast (human) (UniProt P16562); assay: co-IP; yeast coexpressing HA-tagged CRISP2 (wildtype or mutant) and FLAG-tagged PSP94 (wildtype or F24G); cell lysate (50 mM Tris-HCl pH 7.5, 100 mM NaCl, 0.1% NP-40, 10% glycerol) and/or concentrated culture medium, anti-HA magnetic beads overnight at 4 °C, Western blot for HA and FLAG; complex reduced in cells grown in 5 mM CaCl2
T1 sequence: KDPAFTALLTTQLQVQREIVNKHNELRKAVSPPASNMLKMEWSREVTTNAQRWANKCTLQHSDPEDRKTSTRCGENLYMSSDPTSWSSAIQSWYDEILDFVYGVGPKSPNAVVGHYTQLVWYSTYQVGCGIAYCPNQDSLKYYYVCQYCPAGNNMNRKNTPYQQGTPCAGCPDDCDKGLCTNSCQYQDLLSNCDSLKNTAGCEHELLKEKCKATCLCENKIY

[2] = biological target: T2, HA-tagged CRISP2^(L98G Y99P) expressed in yeast (human) (UniProt P16562); assay: as above
T2 sequence: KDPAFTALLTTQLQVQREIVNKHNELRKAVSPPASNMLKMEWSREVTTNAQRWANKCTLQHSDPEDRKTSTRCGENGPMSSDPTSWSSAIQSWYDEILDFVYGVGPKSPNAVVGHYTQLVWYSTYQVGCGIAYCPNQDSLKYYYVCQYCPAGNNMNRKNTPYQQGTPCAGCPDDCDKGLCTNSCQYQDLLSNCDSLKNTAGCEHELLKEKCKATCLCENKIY

[3] = biological target: T1, HA-tagged CRISP2 expressed in yeast (human); assay: co-IP; yeast coexpressing CRISP2-HA and PSP94-FLAG grown in medium with 10 mM CaCl2; anti-HA immunoprecipitation from the culture medium, Western blot for FLAG
[4] = biological target: T3, CRISP2^(L98G Y99P) double mutant, His-tagged (human) (UniProt P16562); assay: MST; 100 nM CAP protein labelled with RED-tris-NTA on its His tag, serial dilution of unlabeled PSP94 or PSP94^F24G; 20 mM Tris pH 7.5, 30 mM NaCl, 0.05% Triton X-100; Monolith NT.115, 80% laser power; triplicates; both purified
T3 sequence (chain, RED-tris-NTA fluorescent label on the His tag): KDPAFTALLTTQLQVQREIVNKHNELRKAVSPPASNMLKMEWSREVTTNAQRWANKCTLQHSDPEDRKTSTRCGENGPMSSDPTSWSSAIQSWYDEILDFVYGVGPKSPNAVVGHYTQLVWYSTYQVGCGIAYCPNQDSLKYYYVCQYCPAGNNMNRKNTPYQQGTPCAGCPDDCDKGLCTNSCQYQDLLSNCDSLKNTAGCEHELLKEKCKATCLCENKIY

[5] = biological target: T4, CRISP2^(N97P L98G Y99P) triple mutant, His-tagged (human) (UniProt P16562); assay: as above
T4 sequence (chain, RED-tris-NTA fluorescent label on the His tag): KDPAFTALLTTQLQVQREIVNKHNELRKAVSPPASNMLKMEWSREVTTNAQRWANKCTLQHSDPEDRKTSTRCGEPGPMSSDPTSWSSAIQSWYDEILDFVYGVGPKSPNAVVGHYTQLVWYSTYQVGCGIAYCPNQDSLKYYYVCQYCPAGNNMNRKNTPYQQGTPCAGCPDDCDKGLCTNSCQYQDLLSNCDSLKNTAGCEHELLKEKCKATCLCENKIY

- binding [1]: binds
- binding [2]: binds weakly
B1: FLAG-tagged PSP94 expressed in yeast (protein, UniProt P08118 21-114)
chain: SCYFIPNEGVPGDSTRKCMDLKGNKHPINSEWQTDNCETCTCYETEISCCTLVSTPVGYDKDNCQRIFKKEDCKYIVVEKKDPKKTCSVSEWII
- binding [3]: no binding (condition: cells grown in 10 mM CaCl2)

- binding [4]: no binding
B2: PSP94^F24G, C-terminal polyhistidine tag (protein, UniProt P08118 21-114)
chain: SCYGIPNEGVPGDSTRKCMDLKGNKHPINSEWQTDNCETCTCYETEISCCTLVSTPVGYDKDNCQRIFKKEDCKYIVVEKKDPKKTCSVSEWII

- binding [5]: no binding
B3: prostate secretory protein of 94 amino acids (PSP94), C-terminal polyhistidine tag (natural protein, human, UniProt P08118 21-114, looked up)
chain: SCYFIPNEGVPGDSTRKCMDLKGNKHPINSEWQTDNCETCTCYETEISCCTLVSTPVGYDKDNCQRIFKKEDCKYIVVEKKDPKKTCSVSEWII
notes: PSP94 (β-microseminoprotein), human; also called β-microseminoprotein; MSP; source: E. coli BL21, purified (nickel-NTA)
